# Where “and” joins values, the source holds several entries; their conditions need not be identical. Equal values may be shown once. About 50,000 (12%) of roughly 420,000 compounds were called active. Inconclusive means that the source gave no clear call. Such entries were picked first, then a sample of the others. The call rests on the fitted dose curve; in most records, active means well fitted inhibition curve with a large enough effect; inconclusive means small, poorly fitted or top-dose-only effect; inactive means flat fitted curve, though single readings scatter. Potencies of inconclusive entries are doubtful fits and often do not repeat.
# Test: qHTS for Inhibitors of human tyrosyl-DNA phosphodiesterase 1 (TDP1): qHTS in cells in presence of CPT; further: nearly all actives have a fitted effect of over 55% in size
# Conditions: chicken DT40 Tdp1-/-;hTDP1 cells + 20 nM CPT, ATP luminescence, 48 h; activity change, negative = growth inhibition: at 46.2 µM (top of the series) unless noted
# Procedure, shortened: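 Chicken DT40 Tdp1-/- cells stably complemented with human TDP1 were seeded at 400 cells/well in medium containing 20 nM camptothecin, exposed to pin-transferred compounds, and grown at 37 °C for at least 48 hr. Viability was read as ATP luminescence.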
# On the % scale 0 is the no-effect control and ±100 the full control effect; potency means the concentration at half of the fitted maximal effect; tags describe the fitted curve by direction and shape.
SMILES,Potency,"activity change, negative = growth inhibition"
COCCCNc1c2c(nc3ccccc13)CCC2,"inconclusive: 18.4 µM [inhibitor, single point]",
O=C(Nc1ccccc1)C1Cc2c(-c3ccccc3Oc3ccccc3)ccnc2O1 (centres undefined),"inconclusive: 20.6 µM [inhibitor, single point]",
O=C(N/N=C/c1cc([N+](=O)[O-])ccc1Cl)c1ccc2nc[nH]c2c1,"inconclusive: 29.1 µM [inhibitor, single point]",
CC(=O)OC1CC2C(C)(C)C(O)CC(O)[C@@]2(C)C2CC[C@@]3(C)C(=CC(=O)OC3c3ccoc3)[C@]12C (some centres undefined),"inconclusive: 29.1 µM [inhibitor, single point]",
COc1cccc(CN(C)C(=O)c2ccc(NC(=O)CC3SC(N4CCCCC4)=NC3=O)cc2)c1OC (centres undefined),,inactive: -8.94%
CCCNC(=O)CSc1nnc(-c2ccco2)n1C,active: 23.1 µM,
O=C(Nc1ccccc1)OCc1ccccn1,,inconclusive: -31.2% [inhibitor]
CCOC(=O)[C@]12CCC=C1N(CCC1=CCCCC1)C(=O)[C@H](CC(=O)NCc1ccc(OC)c(OC)c1)C2,"inconclusive: 6.51 µM [inhibitor, partial curve]",
Cc1ccc(-c2csc(N3CCC[C@@H]3C(=O)NCCn3c(C(F)(F)F)nc4ccccc43)n2)cc1,"inconclusive: 23.1 µM [inhibitor, single point]",
O=c1c2sccc2n(Cc2ccc(F)cc2)c(=O)n1-c1ccc(F)cc1,"inconclusive: 13 µM [inhibitor, partial curve]",
CCCCn1c(-c2cccs2)nc2oc3ccccc3c(=O)c2c1=O,"inconclusive: 18.4 µM [inhibitor, single point]",
Cn1cc(C(=O)NC2CCCCCCC2)c(=O)c2cc(S(=O)(=O)N3CCCC3)ccc21,,inactive: -27.2%
O=C(CCn1nnnc1CN1CCOCC1)N1CCC(c2cccc(Cl)c2)C1 (centres undefined),,inactive: -25.4%
Cc1cc(C)n(-c2nnc3n2N=C(c2c[nH]c4ccccc24)CS3)n1,active: 20.6 µM,
CCn1c(C)nc2cc(C(=O)NNC(=S)NC(=O)c3ccc(OC)cc3)ccc21,"inconclusive: 20.6 µM [inhibitor, single point]",
Cc1c(C(=O)N2CC(C)OC(C)C2)[nH]c2ccc(Br)cc12 (centres undefined),"inconclusive: 29.1 µM [inhibitor, single point]",
COc1ccc(OC)c(-c2cc(C(=O)Nc3cc(C)n(Cc4ccc(Cl)cc4)n3)no2)c1,"inconclusive: 0.447 µM [inhibitor, full curve]",
CCOc1ccc(/C=N/NC(=O)Cc2csc(Nc3cccc(C(F)(F)F)c3)n2)c(OCC)c1,"inconclusive: 23.1 µM [inhibitor, single point]",
CC1CCC(C(C)C)C(OCC(O)CNC(C)c2ccccc2)C1 (centres undefined),"inconclusive: 20.6 µM [inhibitor, single point]",
CCc1ccc2[nH]cc(S(=O)(=O)c3ccc(C)c(C)c3)c(=O)c2c1,"inconclusive: 14.6 µM [inhibitor, single point]",
Cn1c(CSCc2ccc(Cl)cc2Cl)n[nH]c1=S,"inconclusive: 29.1 µM [inhibitor, single point]",
Cc1ccc(CSCC(=O)N2CCN(c3cc(Cl)ccc3C)CC2)cc1,"inconclusive: 29.1 µM [inhibitor, single point]",
Cc1sc2ncnc(N3CCC(C(=O)Nc4ccc(S(N)(=O)=O)cc4)CC3)c2c1C,"inconclusive: 18.4 µM [inhibitor, single point]",

SMILES,Potency,"activity change, negative = growth inhibition"
CCOC(=O)N1CCC(NC(=O)c2cc(S(=O)(=O)NCCc3ccccc3)ccc2F)CC1,"inconclusive: 23.1 µM [inhibitor, partial curve]",
Cc1ccc(S(=O)(=O)c2c(N)n(Cc3ccco3)c3nc4ccccc4nc23)cc1,"inconclusive: 16.4 µM [inhibitor, single point]",
Cc1ccc2oc(C(=O)N(Cc3ccccc3F)C3CCS(=O)(=O)C3)c(C)c2c1 (centres undefined),"inconclusive: 20.6 µM [inhibitor, single point]",
Cc1[nH]c2ccccc2c1C(=O)C(=O)NC1CC(=O)N(c2cccc(F)c2)C1 (centres undefined),,inactive: -1.13%
Cc1ccc2nc(N3CCN(CCO)CC3)nc(-c3ccccc3)c2c1,"inconclusive: 29.1 µM [inhibitor, single point]",
Cc1ccc(S(=O)(=O)N2CCN(C(=O)CN3CCOCC3)C2C(C)C)cc1 (centres undefined),,inactive: -1.72%
O=C(NCc1ccco1)c1cc(-c2cccs2)on1,active: 8.91 µM,
CSC1=C(C#N)C(c2sccc2C)CC(=O)N1 (centres undefined),,inconclusive: -31.1% [inhibitor]
CCC(C)Sc1ccc(-c2nc3cnccn3c2NC2CCCCC2)cc1 (centres undefined),"inconclusive: 25.9 µM [inhibitor, single point] and inconclusive: 29.1 µM [inhibitor, single point]",
COc1ccc(/C=C/C(=O)NC(=S)NNC(=O)Cc2cccs2)cc1OC,active: 16.4 µM,
COC(=O)c1nnn(-c2nonc2N)c1CN1CCc2ccccc21,"inconclusive: 29.1 µM [inhibitor, single point]",
Cc1nc(SCC(=O)NC(C)c2ccccc2)c2oc3ccccc3c2n1 (centres undefined),active: 16.4 µM,
O=C(NCc1ccc(F)cc1)c1cc2c(s1)CCCC2,,inactive: 4.7%
CCCc1nc2ccc(Cl)cn2c1Cc1cccc(Cl)c1,active: 10.3 µM,
Cc1ccc2sc(N(CCCN(C)C)C(=O)c3ccc(S(=O)(=O)N4CCCCCC4)cc3)nc2c1C,"inconclusive: 29.1 µM [inhibitor, single point]",
CCC(=O)Nc1ccc(S(=O)(=O)NCc2ccco2)cc1,,inactive: -1.45%
O=C(Nc1ccccc1)Nc1nnc(Cc2ccc([N+](=O)[O-])cc2)s1,"inconclusive: 25.9 µM [inhibitor, single point]",
Cc1ccc(C)c(S(=O)(=O)N2CCC(c3nc4c(nnn4Cc4ccc5c(c4)OCCO5)c(=O)[nH]3)CC2)c1,"inconclusive: 29.1 µM [inhibitor, single point]",
Cc1ccc(-c2nn(CC(=O)NC3CCCCC3)c3c2cnc2ccc(F)cc23)cc1C,,inactive: -11.9%
Cc1ccc(NC(=O)CN(C)C(=O)c2ccc(NS(=O)(=O)c3ccc4[nH]c(=O)[nH]c4c3)cc2)cc1,,inactive: -3.07%
CC(C)C(CCNC(=O)CC(Cc1ccccc1)c1ccco1)c1ccco1 (centres undefined),"inconclusive: 29.1 µM [inhibitor, single point]",
CCCCOc1ccc(-c2cc3c(=O)n(CC(=O)Nc4ccc(Cl)cc4Cl)ccn3n2)cc1,,inactive: -22.6%
CSc1nnc2c3cc(C)ccc3n(Cc3ccccc3)c2n1,"inconclusive: 11.6 µM [inhibitor, partial curve, poor fit]",

SMILES,Potency,"activity change, negative = growth inhibition"
O=C(CSc1nc2c(cnn2-c2ccc(F)cc2)c(=O)[nH]1)Nc1ccc(Br)cc1,,inactive: -4.98%
Cn1c(=O)[nH]c(=O)c2c1nc1n(CCO)c(-c3ccccc3)cn21,,inactive: -0.312%
C=Cn1cc[n+](CC(=O)c2cccs2)c1,,inactive: 10.4%
CCOC(=O)C(Cc1ccc(NC(=O)/C(=C\c2ccccc2)NC(=O)c2ccccc2)cc1)N1C(=O)c2ccccc2C1=O (centres undefined),active: 10.3 µM,
CCOC(=O)[C@@H]1[C@H]2COc3cc(OC)ccc3[C@@H]2N2C(=O)N(c3ccc(OC)cc3)C(=O)[C@@]12C,,inactive: -4.18%
COc1ccccc1C1C(C(N)=O)=C(C)Nc2nc(CCCO)nn21 (centres undefined),,inactive: -0.304%
CC(C)C(=O)OC1=CN(Cc2ccccc2)S(=O)(=O)c2ccccc21,"inconclusive: 18.4 µM [inhibitor, single point]",
Cc1cc(-n2c(C)cc(C(=O)COc3cc(F)ccc3[N+](=O)[O-])c2C)no1,"inconclusive: 25.9 µM [inhibitor, single point]",
N#Cc1ccc(CSc2nnc(-c3ccccn3)n2-c2ccc(Cl)cc2)cc1,"inconclusive: 29.1 µM [inhibitor, single point]",
CCC(C)[C@H](NC(=O)NCc1ccccn1)C(=O)OC (some centres undefined),"inconclusive: 13 µM [inhibitor, partial curve, poor fit]",
CCCn1c2ccccc2c2cnn(CC(=O)NC3CCCCC3C)c(=O)c21 (centres undefined),"inconclusive: 11.6 µM [inhibitor, partial curve]",
Cc1ccc(Cl)cc1NC(=O)CN(C)S(=O)(=O)c1ccc2c(c1)n(C)c(=O)c(=O)n2C,,inactive: -11.4%
Cc1cnc(C(=O)OCC(=O)c2ccc(F)c(F)c2)cn1,,inactive: 16.9%
CCOc1cc(/C=C/c2ccc3cccc([N+](=O)[O-])c3n2)cc(Cl)c1O,"inconclusive: 18.4 µM [inhibitor, partial curve, poor fit]",
Cn1ncc(Cl)c1C(=O)N1CCN(S(=O)(=O)c2ccc(Cl)s2)CC1,,inactive: -22.5%
CC1CCC(NC(=O)CSc2nncn2C)CC1 (centres undefined),,inactive: 6.9%
O=C(Nc1ccccc1C(=O)OCc1nnc(-c2ccccc2)o1)c1ccco1,,inactive: -10.7%
CC(C)Oc1ccc(S(=O)(=O)N2CCOCC2)cc1NC(=O)CC1CC2CCC1C2 (centres undefined),,inactive: -6.6%
COCC(C)OC(=O)C(C#N)c1nc2ccccc2nc1N1CCN(Cc2ccccc2)CC1 (centres undefined),"inconclusive: 29.1 µM [inhibitor, single point]",
Cn1c(SCc2c(Cl)cccc2Cl)nc(C(F)(F)F)cc1=O,"inconclusive: 15.8 µM [inhibitor, partial curve, poor fit]",
N#Cc1ccc(Cl)cc1NC(=O)CNc1cccc(S(=O)(=O)N2CCCC2)c1,"inconclusive: 25.9 µM [inhibitor, single point]",
CCOc1cc(/C=N/NC(=O)CNc2cccc(C)c2)ccc1OC(=O)c1ccccc1,"inconclusive: 23.1 µM [inhibitor, single point]",
COc1ccc2oc(C(=O)Nc3ccc(S(=O)(=O)N(C)C4CCN(C)CC4)cc3)c(C)c2c1,"inconclusive: 20.6 µM [inhibitor, single point]",
